{"source": "paper PMC4535766", "about": "“Antiprotozoal Activity Profiling of Approved Drugs: A Starting Point toward Drug Repositioning” (PLoS ONE, 2015)", "key": {"[1]": {"test_system": "T. b. rhodesiense strain STIB 900, trypomastigotes", "test": "In vitro activity against T. b. rhodesiense, serial drug dilution assay", "settings": "for IC50: Trypanosoma brucei", "procedure": "(§1) Drug stock solutions (10mg/ml) were in DMSO (100%). […] Selectivity index (SI) was calculated as IC50 L6 cells/IC50 parasite."}, "[2]": {"test_system": "T. cruzi, strain Tulahuen C4, intracellular amastigotes", "test": "microbe, parasite or virus in culture", "settings": "Trypanosoma cruzi", "procedure": "as §1"}, "P. falciparum strain K1": {"test_system": "P. falciparum strain K1", "test": "In vitro activity against P. falciparum, serial drug dilution assay", "settings": "Plasmodium falciparum", "procedure": "as §1"}, "[3]": {"test_system": "axenic amastigotes of L. donovani, strain MHOM-ET-67/L82", "test": "In vitro activity against L. donovani axenic amastigotes, serial drug dilution assay", "type": "cell-based", "settings": "Leishmania donovani", "procedure": "as §1"}, "[4]": {"test_system": "intracellular amastigotes of L. donovani strain MHOM-ET-67/L82", "test": "Activity against Leishmania donovani intracellular amastigotes in mouse peritoneal macrophages", "settings": "Peritoneal macrophage", "procedure": "After 24 h 1.2 x 10^5 amastigote L. donovani in 100 μl were added. The amastigotes were taken from an axenic culture grown at pH 5.4. Four hours later, the medium containing free amastigote forms was removed and replaced by fresh medium. The next day the medium was replaced by medium with or without a serial drug dilution of seven 3-fold dilution steps covering a range from 30 to 0.04 μg/ml. Parasite growth in the presence of the drug was compared to control wells. After 96 h of incubation, the medium was removed and the slides fixed with methanol for 10 min followed by staining with a 10% Giemsa solution. Infected and non-infected macrophages were counted for the control cultures and those exposed to the serial drug dilutions. The infection rates were determined. The results were expressed as a percentage reduction in parasite burden compared to control wells, and the IC50 was calculated by linear regression analysis. The collection of mouse peritoneal macrophages was done at the Swiss Tropical and Public Health Institute (Basel) according to the rules and regulations for the protection of animal rights (\"Tierschutzverordnung\") of the Swiss \"Bundesamt für Veterinärwesen\"."}, "[5]": {"settings": "L. donovani axenic amastigotes, read-out: L. don. axen. IC50"}, "[6]": {"settings": "axenic amastigotes, strain MHOM-ET-67/L82, means of two independent assays, read-out: IC50 L. don. axen."}, "[7]": {"settings": "96 h, read-out: IC50 L. don. intracell"}}, "note": "Counter-ions that a name gives are not always drawn. Like-named read-outs stand apart in the source and are kept apart here.", "data": [{"compound": "Clc1ccc2c(c1)C(N1CCNCC1)=Nc1ccccc1O2", "note": "[Amoxapine]", "values": [{"measurement": "IC50", "setting": "[1]; read-out: IC50 T. b. rhod.", "result": 1.87, "unit": "µM"}, {"measurement": "IC50", "setting": "[2]; read-out: IC50 T. cruzi", "result": 17.9, "unit": "µM"}, {"measurement": "IC50", "setting": "P. falciparum strain K1; K1, read-out: IC50 P. falc. K1", "result": 1.14, "unit": "µM"}]}, {"compound": "CCN(CC)CCOc1ccc(C(=C(Cl)c2ccccc2)c2ccccc2)cc1", "note": "[Clomiphene]", "values": [{"measurement": "IC50", "setting": "[1]; read-out: T. b. rhod. IC50", "result": 6.21, "unit": "µM"}, {"measurement": "IC50", "setting": "[2]; read-out: T. cruzi IC50", "result": 11.5, "unit": "µM"}, {"measurement": "IC50", "setting": "[3]; [5]", "result": 21.6, "unit": "µM"}, {"measurement": "IC50", "setting": "P. falciparum strain K1; K1, read-out: P. falc. IC50", "result": 1.37, "unit": "µM"}]}, {"compound": "CN(C)CCCN1c2ccccc2CCc2ccc(Cl)cc21", "note": "[Clomipramine]", "values": [{"measurement": "IC50", "setting": "[1]; read-out: IC50 T. b. rhod.", "result": 2.06, "unit": "µM"}, {"measurement": "IC50", "setting": "[2]; read-out: IC50 T. cruzi", "result": 20.3, "unit": "µM"}, {"measurement": "IC50", "setting": "[3]; [6]", "result": 75.7, "unit": "µM"}, {"measurement": "IC50", "setting": "P. falciparum strain K1; K1, read-out: IC50 P. falc. K1", "result": 1.3, "unit": "µM"}]}, {"compound": "Clc1ccccc1C(c1ccccc1)(c1ccccc1)n1ccnc1", "note": "[Clotrimazole]", "values": [{"measurement": "IC50", "setting": "[1]; read-out: IC50 T. b. rhod.", "result": 23.7, "unit": "µM"}, {"measurement": "IC50", "setting": "[3]; [6]", "result": 2.23, "unit": "µM"}, {"measurement": "IC50", "setting": "P. falciparum strain K1; K1, read-out: IC50 P. falc. K1", "result": 0.11, "unit": "µM"}]}, {"compound": "Clc1ccc(COC(Cn2ccnc2)c2ccc(Cl)cc2Cl)cc1", "note": "(stereo not shown) [Econazole (Nitrate salt), Econazole]", "values": [{"measurement": "IC50", "setting": "[1]; read-out: IC50 T. b. rhod.", "result": 41.7, "unit": "µM"}, {"measurement": "IC50", "setting": "[3]; [6]", "result": 6.15, "unit": "µM"}, {"measurement": "IC50", "setting": "[4]; [7]", "result": 14, "unit": "µM"}, {"measurement": "IC50", "setting": "P. falciparum strain K1; K1, read-out: IC50 P. falc. K1", "result": 0.32, "unit": "µM"}]}, {"compound": "CNCCC(Oc1ccc(C(F)(F)F)cc1)c1ccccc1", "note": "(stereo not shown) [Fluoxetine]", "values": [{"measurement": "IC50", "setting": "[1]; read-out: IC50 T. b. rhod.", "result": 2.01, "unit": "µM"}, {"measurement": "IC50", "setting": "[2]; read-out: IC50 T. cruzi", "result": 19.1, "unit": "µM"}, {"measurement": "IC50", "setting": "P. falciparum strain K1; K1, read-out: IC50 P. falc. K1", "result": 1.21, "unit": "µM"}]}, {"compound": "OCCN1CCN(CCCN2c3ccccc3Sc3ccc(C(F)(F)F)cc32)CC1", "note": "[Fluphenazine]", "values": [{"measurement": "IC50", "setting": "[1]; read-out: IC50 T. b. rhod.", "result": 2.03, "unit": "µM"}, {"measurement": "IC50", "setting": "[2]; read-out: IC50 T. cruzi", "result": 13, "unit": "µM"}, {"measurement": "IC50", "setting": "[3]; [6]", "result": 46.7, "unit": "µM"}]}, {"compound": "Clc1ccc(COC(Cn2ccnc2)c2ccc(Cl)cc2Cl)c(Cl)c1", "note": "(stereo not shown) [Miconazole (Nitrate salt), Miconazole]", "values": [{"measurement": "IC50", "setting": "[1]; read-out: IC50 T. b. rhod.", "result": 36.6, "unit": "µM"}, {"measurement": "IC50", "setting": "[3]; [6]", "result": 4.39, "unit": "µM"}, {"measurement": "IC50", "setting": "[4]; [7]", "result": 10.8, "unit": "µM"}, {"measurement": "IC50", "setting": "P. falciparum strain K1; K1, read-out: IC50 P. falc. K1", "result": 0.49, "unit": "µM"}]}, {"compound": "CSc1ccc2c(c1)N(CCC1CCCCN1C)c1ccccc1S2", "note": "(stereo not shown) [Thioridazine]", "values": [{"measurement": "IC50", "setting": "[1]; read-out: IC50 T. b. rhod.", "result": 0.53, "unit": "µM"}, {"measurement": "selectivity ratio", "setting": "[1]; rat, Selectivity index: IC50 Cytotoxicity L6/ IC50 T. b. rhodesiense", "result": 10}, {"measurement": "IC50", "setting": "[2]; read-out: T. cruzi IC50", "result": 5.83, "unit": "µM"}, {"measurement": "IC50", "setting": "[3]; [5]", "result": 22.4, "unit": "µM"}, {"measurement": "IC50", "setting": "[4]; read-out: L. don. intracell IC50", "result": "> 7.74", "unit": "µM"}, {"measurement": "IC50", "setting": "P. falciparum strain K1; K1, read-out: P. falc. IC50", "result": 1.07, "unit": "µM"}]}]}
